In patent US20260216242A1 (ALMAC DISCOVERY, published 2026):

T1: human ALPL on CHO cells (human, UniProt P05186 18-501)
T1 construct: whole, on cells; also called CHO-ALPL
T1 sequence (looked up): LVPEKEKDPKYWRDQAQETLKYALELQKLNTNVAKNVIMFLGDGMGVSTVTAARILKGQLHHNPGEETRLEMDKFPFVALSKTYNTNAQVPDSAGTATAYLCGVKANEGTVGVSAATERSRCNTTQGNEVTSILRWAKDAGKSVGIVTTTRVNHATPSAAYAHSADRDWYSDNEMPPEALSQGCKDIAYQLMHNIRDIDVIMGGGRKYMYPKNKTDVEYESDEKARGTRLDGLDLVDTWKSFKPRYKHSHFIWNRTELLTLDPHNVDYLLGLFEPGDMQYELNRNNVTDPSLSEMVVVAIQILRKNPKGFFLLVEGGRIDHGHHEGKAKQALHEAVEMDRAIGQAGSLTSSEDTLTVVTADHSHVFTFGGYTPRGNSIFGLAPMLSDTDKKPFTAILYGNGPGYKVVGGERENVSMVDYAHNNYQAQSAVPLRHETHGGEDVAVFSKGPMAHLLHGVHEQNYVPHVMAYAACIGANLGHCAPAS

T2: ALPI His homodimer (human, UniProt P09923 20-503)
T2 construct: Whole entry with His tag; used in ELISA and BLI; also called hALPI
T2 sequence: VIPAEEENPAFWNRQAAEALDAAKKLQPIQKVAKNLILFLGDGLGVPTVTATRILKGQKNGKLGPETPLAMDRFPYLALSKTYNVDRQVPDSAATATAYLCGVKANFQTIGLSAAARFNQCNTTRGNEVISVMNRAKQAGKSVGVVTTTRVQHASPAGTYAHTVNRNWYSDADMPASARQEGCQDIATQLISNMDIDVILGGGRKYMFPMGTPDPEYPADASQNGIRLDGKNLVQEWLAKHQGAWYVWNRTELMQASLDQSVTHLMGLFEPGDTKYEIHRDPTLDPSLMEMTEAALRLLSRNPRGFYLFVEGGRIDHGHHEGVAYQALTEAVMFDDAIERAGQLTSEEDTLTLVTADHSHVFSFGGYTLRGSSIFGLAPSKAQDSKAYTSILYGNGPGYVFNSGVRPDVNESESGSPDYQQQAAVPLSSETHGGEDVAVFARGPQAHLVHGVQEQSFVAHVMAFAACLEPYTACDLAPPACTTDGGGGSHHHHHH

T3: Rhesus monkey ALPP (leucine zipper) (rhesus monkey)
T3 construct: Whole entry: cysteine-stabilised leucine zipper fusion; also called rmALPP; NCBI #XP_028687061
T3 chain: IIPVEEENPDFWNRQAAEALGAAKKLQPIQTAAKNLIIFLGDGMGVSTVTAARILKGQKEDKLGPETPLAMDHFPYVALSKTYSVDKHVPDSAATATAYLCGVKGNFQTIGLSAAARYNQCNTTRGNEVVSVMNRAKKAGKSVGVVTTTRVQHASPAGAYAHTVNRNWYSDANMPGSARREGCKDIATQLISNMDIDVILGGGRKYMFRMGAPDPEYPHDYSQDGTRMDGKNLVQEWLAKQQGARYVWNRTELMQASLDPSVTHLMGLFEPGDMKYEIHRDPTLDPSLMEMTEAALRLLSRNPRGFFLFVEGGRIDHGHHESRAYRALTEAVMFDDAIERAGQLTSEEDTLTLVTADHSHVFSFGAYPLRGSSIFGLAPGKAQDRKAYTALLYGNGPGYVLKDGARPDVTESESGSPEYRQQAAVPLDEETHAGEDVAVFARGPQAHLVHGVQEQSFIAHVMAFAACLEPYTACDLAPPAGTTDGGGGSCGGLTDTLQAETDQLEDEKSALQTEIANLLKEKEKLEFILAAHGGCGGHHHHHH

B1: E10-hFc (S239C) (Fc fusion)
chain: QVQLVESGGGLVQAGGSLRLSCAVSGRALSDYNIGWFRQAPGKEREFVARKTWDGSSTRYDDSVKGRFTVSIEDAKNTAYLQMSSLKTEDTAVYYCAAGRYSRARGWEYDYWGQGTQVTVSSGGGGSGGGGSGGGGS[human IgG1 Fc with changes not spelt out]
notes: [G4S]3 linker; also called #435
B2: F05-hFc (S239C) (Fc fusion)
chain: QVQLVESGGGLVQAGGSLRLSCAASGRAFGDYNIGWFRQAPGKEREFVARRTWDGSSTRYDDSVKGRFTVSIDNAKNTAYLQMNSLKTEDTAVYYCAAGRYSRVRGWEYDYWGQGTQVTVSSGGGGSGGGGSGGGGS[human IgG1 Fc with changes not spelt out]
notes: [G4S]3 linker; also called #436
B3: C07-hFc (S239C) (Fc fusion)
chain: QVQLVESGGGLVQAGESLRLACAASGTIFSGNAVGWYRQAPEKQREWVSSITDYGDTDYAEAVKGRFTISRDNAKNTVYLQMNSLKPEDTAVYYCYVYQRGESEEYWGQGTQVTVSSGGGGSGGGGSGGGGS[human IgG1 Fc with changes not spelt out]
notes: Built from parts
B4: D10-hFc (S239C) (Fc fusion)
chain: QVQLVESGGGLVQPGGSLRLSCAASGSIFSVNTMGWYRQAPGKQRDLVAVATSGGTIHYADSVKGRFTISRDNAKNTVYLQMNSLKPEDTAVYYCNLVVPYGMIAGDHDYWGQGTKVTVSSGGGGSGGGGSGGGGS[human IgG1 Fc with changes not spelt out]
notes: [G4S]3 linker
B5: A06-hFc (S239C) (Fc fusion)
chain: QVHLVESGGGLVQAGGSLRLSCAASGRTFLSMGWFRQAPGKEREFVAAISWTGGSTGYADSVKGRFTISRESDKETMYLQMNSLKPEDTAVYYCAARGDVYYGGDDATRYKYWGQGTQVTVSSGGGGSGGGGSGGGGS[human IgG1 Fc with changes not spelt out]
notes: [G4S]3 linker; also called #340
B6: B01-hFc (S239C) (Fc fusion)
chain: QVQLVESGGGLVQAGGSLRLSCEVTRSPMPIDTMAWYRQAPGRQRELVAIISRSGSTNYADSVKGRFTISRNDTKSTMYKSTMYLKMNTLELEDTGVYYCNAVGLWNGAEYWGQGTQVTVSSGGGGSGGGGSGGGGS[human IgG1 Fc with changes not spelt out]
notes: Built from parts; also called #341
B7: E06-hFc (S239C) (Fc fusion)
chain: QVHLVESGGGLVQAGGSLRLSCAASRRSFSEYAMGWFRQAPGKEREFVAAIGWSGVIEYADSVKGRFTISRDNAKDTVYLQMNSLKPEDTAVYYCAAGLGIRVVSQTPAYWGQGTQVTVSSGGGGSGGGGSGGGGS[human IgG1 Fc with changes not spelt out]
notes: [G4S]3 linker
B8: D04-hFc (S239C) (Fc fusion)
chain: QVQLVESGGGLVQPGGSLRLSCAASESTFSINVMGWYRQAPGKQRELVATITSGDITNYADSVKGRFTISRDNAENTVYLRTNSLKPEDTAVYYCNARGEYHSGNEYDYWGQGTQVTVSSGGGGSGGGGSGGGGS[human IgG1 Fc with changes not spelt out]
notes: Built from parts; also called #371

These binders were tested against T1, human ALPL on CHO cells (assay: flow cytometry, CHO cells stably expressing human ALPL; VHH-hFc detected with FITC anti-human Ab).
Method: VHH-hFc proteins were assessed for human ALPP, ALPPL2, ALPI and ALPL cell-surface binding by flow cytometry. Binders were screened on CHO cells stably expressing human ALPP, ALPPL2, ALPI or ALPL.
Cell surface binding of test agents to hALPP isoforms was characterized in four CHO-ALPP isoform transfectant cell lines (CHO-ALPP, CHO-ALPPL2, CHO-ALPI and CHO-ALPL) and the resulting KDapp values determined. Adherent cells were detached from tissue culture flasks by incubating with 0.1% EDTA/PBS solution at 37° C. for ~10 minutes or until cells detached easily. Cells were re-suspended in ice-cold PBS/2% FCS in 15 ml tubes and centrifuged at 1700 rpm for 5 mins at 4° C. Supernatant was removed and the cell pellet re-suspended in PBS/2% FCS. […] Cells were incubated with 100 μl of test agents at a range of concentrations, plus controls for 1 hr on ice. The sample plate was centrifuged at 1700 rpm for 5 mins at 4° C. The supernatant was removed, and a wash performed by re-suspending the cell pellets in 0.25 mL of ice-cold PBS/2% FCS using a multichannel pipette. Samples were again centrifuged at 1700 rpm for 5 min at 4° C. Supernatant was removed and two further washes performed as described. After the final wash and centrifugation step, excess liquid was removed by blotting the plate on tissue paper. Binding of VHH-hFc agents was determined by adding 100 μl of Fitc-anti-human Ab (ThermoFisher) and incubating for 30 mins on ice in the dark. Wash steps were performed as described previously. All cell pellets were finally re-suspended in 0.28 ml of ice-cold PBS/2% FCS and left on ice in the dark prior to analysis on a Merck-Millipore Guava EasyCyte HT or Thermo Fisher Attune N×T flow cytometer.
B1: no binding (tested: 350 nM).
B2: no binding (tested: 350 nM).
B3: no binding (tested: 350 nM).
B4: no binding (tested: 350 nM).
B5: no binding (tested: 350 nM).
B6: no binding (tested: 350 nM).
B7: no binding (tested: 350 nM).

The binders below were run against T2, ALPI His homodimer (assay: BLI, antigen immobilised).
Method: (§1) Binding kinetics were determined using the Biolayer Interferometry (BLI) Octet K2 or R4 system (Sartorius). […] For KD apparent measurements, the ALPP proteins were immobilised in sodium acetate pH5 buffer to AR2G sensors using amine coupling. To measure 1:1 interactions, AHC biosensors were used to immobilise Fc-fused proteins. All assays were conducted in HBS-EP with a plate temperature of 25° C. Ka (M⁻¹s⁻¹), Kd (s⁻¹) and KD (nM) values were determined using Octet Data Analysis High Throughput software (Sartorius) for Biolayer Interferometry.
B8: no binding.
B1: no binding.
B2: no binding.
B3: no binding.
B4: no binding.
B5: no binding.
B7: no binding.

Molecular target: T3, Rhesus monkey ALPP (leucine zipper)
Assay: BLI, antigen immobilised, KD apparent
Method: as §1
To assess cross-species reactivity of the ALPP/ALPPL2 targeting VHH-hFc fusions, BLI was conducted using mouse ALPPL2 (NCBI #NP_031459), rhesus monkey ALPP (NCBI #XP_028687061) and cynomolgus monkey ALPP (NCBI #XP_045223825). […] BLI was conducted as described above.
Binder B8 has a Kd of under 0.01 nM, a koff of under 1e-07 s⁻¹ and a kon of 672000 M⁻¹ s⁻¹.
With B1 the koff was under 1e-07 s⁻¹ and the kon was 544000 M⁻¹ s⁻¹.
B3 gave a Kd of 0.721 nM, a koff of 0.000481 s⁻¹ and a kon of 667000 M⁻¹ s⁻¹.
In the case of B4, the Kd is reported as under 0.01 nM, the koff is reported as under 1e-07 s⁻¹ and the kon is reported as 126000 M⁻¹ s⁻¹.
With B5 the Kd was under 0.01 nM, the koff was under 1e-07 s⁻¹ and the kon was 228000 M⁻¹ s⁻¹.
With B6 the Kd was 0.025 nM, the koff was 4.81e-06 s⁻¹ and the kon was 194000 M⁻¹ s⁻¹.
B7 showed a Kd of under 0.01 nM, a koff of under 1e-07 s⁻¹ and a kon of 752000 M⁻¹ s⁻¹.
